Hit rate of the full screen: of about 310,000 compounds, about 14,000 (4.5%) showed an effect of 50% or more. Effects have a minus sign here. The list shows a part of the results.
target: human ether-à-go-go-related gene (hERG) potassium channel (human, UniProt Q12809); experiment: primary screen, population patch clamp on CHO cells stably expressing hERG
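Also: peak tail current of the secondary pulse compared with the same well before compound.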

human ether-à-go-go-related gene (hERG) potassium channel, sequence (Q12809 whole entry, looked up): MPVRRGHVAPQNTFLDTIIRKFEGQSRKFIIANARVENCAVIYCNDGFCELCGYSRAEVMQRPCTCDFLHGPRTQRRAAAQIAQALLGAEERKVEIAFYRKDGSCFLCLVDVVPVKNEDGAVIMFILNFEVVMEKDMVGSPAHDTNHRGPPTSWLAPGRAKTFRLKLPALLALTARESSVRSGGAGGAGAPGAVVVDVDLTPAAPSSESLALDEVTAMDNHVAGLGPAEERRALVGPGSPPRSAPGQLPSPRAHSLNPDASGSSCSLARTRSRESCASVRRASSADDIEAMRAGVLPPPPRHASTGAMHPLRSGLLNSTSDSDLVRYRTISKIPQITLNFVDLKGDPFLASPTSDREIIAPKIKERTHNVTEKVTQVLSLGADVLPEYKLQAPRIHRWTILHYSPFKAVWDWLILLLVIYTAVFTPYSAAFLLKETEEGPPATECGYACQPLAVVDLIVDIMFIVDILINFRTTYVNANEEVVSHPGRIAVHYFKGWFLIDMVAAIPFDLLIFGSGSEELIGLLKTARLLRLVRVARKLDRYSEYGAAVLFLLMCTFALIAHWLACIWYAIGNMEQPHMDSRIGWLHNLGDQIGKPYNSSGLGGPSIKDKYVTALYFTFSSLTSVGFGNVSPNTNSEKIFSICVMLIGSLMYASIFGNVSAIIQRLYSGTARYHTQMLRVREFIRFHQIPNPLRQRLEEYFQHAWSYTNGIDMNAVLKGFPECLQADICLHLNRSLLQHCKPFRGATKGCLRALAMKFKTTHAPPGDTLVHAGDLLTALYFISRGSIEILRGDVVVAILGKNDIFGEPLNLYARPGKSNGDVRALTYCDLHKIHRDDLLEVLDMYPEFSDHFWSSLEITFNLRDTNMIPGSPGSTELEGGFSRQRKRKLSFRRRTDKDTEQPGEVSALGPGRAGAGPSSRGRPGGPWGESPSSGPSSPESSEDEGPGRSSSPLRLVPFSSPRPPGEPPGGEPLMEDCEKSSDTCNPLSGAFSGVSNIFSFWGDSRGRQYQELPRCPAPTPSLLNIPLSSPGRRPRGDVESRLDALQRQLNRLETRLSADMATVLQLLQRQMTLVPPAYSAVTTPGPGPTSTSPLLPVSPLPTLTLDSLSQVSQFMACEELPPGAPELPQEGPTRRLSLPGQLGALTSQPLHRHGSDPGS

SMILES | hERG current change (%, negative = inhibition) at 10uM [%]
Cc1ccccc1N1C(=O)c2ccccc2N2C(=O)c3ccccc3C12 (stereo not shown) | -22
O=C(c1ccc(Cl)c(Cl)c1)N1CCC(=O)N(C(COCc2cccc(Cl)c2)Cc2ccccc2)CC1 (stereo not shown) | -4.62
CCOC(=O)CN1C(=O)N[C@@H](c2ccccc2)C(C(C)=O)=C1C | 1.81
CC(=O)Nc1cc(NC(C)=O)cc(C(=O)OCC(=O)N2CC(C)OC(C)C2)c1 (stereo not shown) | 4.95
CC(=O)c1c2c3c(c(Br)ccc3n(C)c1=O)C(=O)c1ccccc1-2 | 2.39
COc1ccc(N2CCC(CNS(=O)(=O)c3cccc(C(F)(F)F)c3)C2)cc1 (stereo not shown) | -0.336
Cc1ccc(CNC(=O)c2cn(C)c(=O)c3c2c2ccccc2n3C)o1 | 9.89
CCc1ccc(C(=O)COC(=O)CNC(=O)CNC(=O)Cc2ccccc2)cc1 | 9.36
O=C1Nc2ccccc2C12OC1CCCCC1O2 (stereo not shown) | -45
CCOC(=O)c1cccc(NC(=O)Cn2c(CC(=O)NC)nc3ccccc32)c1 | -3.06
O=C(Nc1cccc(Cn2cccn2)c1)c1cc2c(s1)CCCC2 | -0.0832
CC(C)NC(=O)c1ccccc1NC(=O)C1COc2ccccc2O1 (stereo not shown) | 24
CCN(CC)c1ccc(/C=C2\NC(=O)NC2=O)cc1 | 19.5
CC(=O)Nc1ccc2c(c1)nc(CCN1CCC(C)CC1)n2C | 8.83
CCCCCCCn1c(=N)n(CC(O)c2ccco2)c2ccccc21.Cl (stereo not shown) | -86.9
CC(C)CN1C(=O)c2ccc(C(=O)Nc3nccs3)cc2C1=O | 8.84
CCCCC[n+]1ccn(C2=C([O-])c3ccccc3C(=O)/C2=N\S(=O)(=O)c2ccc(Cl)cc2)c1 | -3.54
c1ccc2c3c([nH]c2c1)C1(CCNCC1)NCC3 | -6.06
O=C(Cc1csc(-c2ccccc2)n1)Nc1ccc(C(F)(F)F)cc1 | 12.4
Cn1c(SCC(=O)N2CCN(c3ccccc3)CC2)nnc1-c1cc2ccccc2o1 | -11.8
COc1cccc(C(=O)NNC2=C(C(=O)C(F)(F)F)CCC2)c1 | 6.77
CCOC(=O)NC(=O)CSc1nc(-c2ccc(C)c(C)c2)cn1-c1ccccc1 | -0.392

SMILES | hERG current change (%, negative = inhibition) at 10uM [%]
CCn1c(-c2ccccc2)csc1=Nc1ccc(S(=O)(=O)O)cc1 | 15.2
CC(=O)N1CCc2c(sc(NC(=O)C3CCCN3S(=O)(=O)c3cccs3)c2C(N)=O)C1 (stereo not shown) | -2.88
COc1ccc2nc(NC(=O)c3ccc4ncsc4c3)sc2c1 | 22.2
CCOc1ccc2nc(N3C(=O)C(O)=C(C(=O)c4ccco4)C3c3ccco3)sc2c1 (stereo not shown) | 17.7
CN(C)c1c(F)cc(-c2nn[nH]n2)cc1F | 12.9
CCOC(=O)C1=C(c2ccccc2)NC(=O)NC1c1ccc(OC)cc1 (stereo not shown) | -6.84
O=C(CSc1ccc(Cl)cc1)NC1=NN(c2ccccc2)C(=O)C1 | 17.5
CCN(CC)CCNC(=O)c1cc2c(-c3ccc(Cl)cc3)nn(C)c2s1 | -69.6
Cl.Clc1cc(I)cc(Cl)c1NC1=NCCN1 | -1.37
Cc1ccc(Cl)cc1N1CCN(C(=O)c2ccc3nc[nH]c3c2)CC1 | -38.1
CC(C)N(C(=O)Cn1c(SCC(=O)Nc2nccs2)nc2ccccc21)C(C)C | 12.6
O/N=C1/C2C3CC4C5C3C1C5C1(OCCO1)C42 (stereo not shown) | 4.44
Cc1ccc(NS(=O)(=O)c2ccc(C(=O)NCC3CCCO3)cc2)cc1 (stereo not shown) | 5.49
O=C(Cc1ccc(-n2c(=O)c3sccc3n(CC(=O)Nc3ccccc3)c2=O)cc1)NCc1ccco1 | 13.7
CC(=O)Nc1ccc(/C(C)=N/Nc2nc(N3CCOCC3)nc(N3CCOCC3)n2)cc1 | 27
Nc1c(Cl)ncnc1N1CCCC1 | 21.4
CC(=O)NCCc1ccc(C(=O)CSc2nnc(C3CC3)n2C2CC2)cc1 | 15.6
COc1cccc(CN2CCC(C(=O)N3CCN(Cc4ccc5c(c4)OCO5)CC3)CC2)c1 | -19.8
C[C@H](NC(=O)N1CCn2c1nc1ccccc12)C(=O)NCc1ccc2c(c1)OCO2 | -36.6
Cc1cc(NC(=O)CSc2nc3ccccc3cc2C#N)no1 | 0.0832
Cc1sc(NC(=O)CCS(=O)(=O)c2ccccc2)c(C#N)c1C | 14.7
O=C1CCN(C(=O)c2ccccc2)C2CCCCC12 (stereo not shown) | -5.77

SMILES | hERG current change (%, negative = inhibition) at 10uM [%]
c1cnc2ccc(C(c3nnnn3C3CCCCC3)N3CCN(C4CCCCC4)CC3)cc2c1 (stereo not shown) | -78.8
CN(CC(=O)Nc1ccccc1C(F)(F)F)C(=O)C1CCN(C(=O)c2ccc(Cl)cc2)CC1 | -31.8
Cc1ccc(CN2C(=O)c3ccccc3NC2c2cc(Br)ccc2O)cc1 (stereo not shown) | 8.23
CNS(=O)(=O)c1cc(C(=O)NCc2ccco2)ccc1Cl | 1.66
CC(=O)Nc1ccc([N+](=O)[O-])c(CS(=O)(=O)c2ccc(C)cc2)c1[N+](=O)[O-] | -19.1
Cc1ccc(NC(=O)CSc2ccccc2NC(=O)c2cccc(Cl)c2)cc1Cl | -5.6
CC(=O)NC(=S)Nc1cccc2ccc(C)nc12 | 3.25
Cc1cc(NC(=O)CSc2nnc3c4c(C)c(C)sc4ncn23)no1 | -0.766
COC(=O)c1ccc(Cn2nnc3c(=O)[nH]c(C4CCCN(S(=O)(=O)c5cccc(Cl)c5)C4)nc32)cc1 (stereo not shown) | 11.4
Cc1c(Br)c([N+](=O)[O-])nn1CC(=O)N1CCN(C23CC4CC(CC(C4)C2)C3)CC1 | -38.1
COc1cc(OC)c(OC)cc1/C=N/NC(=O)C[n+]1ccccc1.[Cl-] | -12.6
CSc1nnc(COc2ccc(C)cc2)n1N | 24.8
CC(C)N(Cc1ccccc1)C(=O)c1cccs1 | 10
COc1cccc(NC(=O)C(=O)N/N=C(\C)CC(=O)Nc2ccc(NC(C)=O)cc2)c1 | 24.4
Cl.c1ccc(CC2=NCCN2)cc1 | 7.57
Cc1ccc(Cl)cc1Nc1nc(-c2sc(NC(=O)c3ccccc3)nc2C)cs1 | -11.7
CCN(CC(=O)Nc1c(F)cccc1F)C(=O)c1cnccn1 | -0.365
O=C(Nc1scc(-c2ccccc2)c1C(=O)O)c1ccc(F)cc1 | 34
Cc1nc(CC(=O)NNS(=O)(=O)c2ccc(F)c(Cl)c2)cs1 | 20
Cn1c(SCC(=O)N2CCCC2)nnc1-c1cccs1 | 4.73
CCOC(=O)N1CCN(C(=O)CNC(=O)c2nn(-c3ccc(OC)cc3OC)c(=O)c3ccccc23)CC1 | -4.94
CCc1nnc(NC(=O)CCC(=O)NC2CCCC2)s1 | -3.36

SMILES | hERG current change (%, negative = inhibition) at 10uM [%]
O=C(CNC(=O)c1cc2c(s1)CCC2)Nc1ccccc1Br | 11.6
COc1ccccc1NC(=O)N1CCc2c([nH]c3ccccc23)C1C(F)(F)F (stereo not shown) | -0.609
CCN1CCN(CCNC(=O)CCCn2nc(C)c3c(C)n(-c4ccc(C)cc4)nc3c2=O)CC1 | 0.678
COc1ccc(Oc2c(C)oc3c(CN(C)C)c(O)ccc3c2=O)cc1 | -1.88
O=C(NCc1ccc2c(c1)OCO2)C(=O)Nc1cc2c3c(c1)CC(=O)N3CCC2 | -11
COc1ccccc1N1CCN(C(=S)Nc2ccc(S(=O)(=O)N3CCOCC3)cc2)CC1 | 12.1
O=C(NNC(=S)Nc1ccccc1Cl)C1CC1 | 15.8
Cc1cccc(C)c1NC(=S)NC(=O)c1ccc(Br)o1 | -2.33
CCOc1ccc(-c2nc(C#N)c(NCc3ccc4c(c3)OCO4)o2)cc1 | 11.3
Cn1c(-c2ccc(C=O)s2)nc2ccccc21 | -7.61
Cc1ccc(C2(C)NC(=O)N(Cc3c(C)noc3C)C2=O)cc1 (stereo not shown) | 4.32
CCOc1ccc(NC(=O)CN2CCN(C3c4ccccc4-c4ccccc43)CC2)cc1 | -40.3
O=C(NNc1ccc([N+](=O)[O-])cc1)C1CC1c1ccccc1 (stereo not shown) | -15.1
C/C(=N\NC(=O)c1ccc(Cl)cc1)c1ccc(Br)s1 | 2.93
CC(C)c1ccc(NC2CCCN(C(=O)c3ccco3)C2)cc1 (stereo not shown) | 12.5
COc1ccc(OC)c(-n2c(-c3ccccc3)n[nH]c2=S)c1 | 11.3
COc1cccc(CN2CCN(Cc3ccc(O)c(OC)c3)CC2CCO)c1 (stereo not shown) | -5.76
O=C(CCCOc1ccccc1)Nc1nccs1 | -13
O=S1c2ccccc2Nc2ccccc21 | 16.2
CCOC(=O)C(CO)(NC(C)=O)C(=O)OCC | 11.3
O=C(C1CCN(S(=O)(=O)c2cccc3nsnc23)CC1)N1CCCc2ccccc21 | -24
CC1CC(NS(=O)(=O)c2cc3c4c(c2)CCN4C(=O)CC3)CC(C)(C)C1 (stereo not shown) | -63.1

Source: paper PMC4336329 (PLoS ONE, 2015)
